For some of these results: What follows is the remainder of the data, with few or none of the strong results. The entries are a selection whose mix differs from that of the whole data set.

The term inhibition denotes the change of the read-out against control, counted positive when it falls.

For one assay, the target named is Tyrosine-protein kinase ABL2 (Homo sapiens) (UniProt P42684). The following applies: at 1 µM.
UniProt P42684, sequence (P42684 whole entry): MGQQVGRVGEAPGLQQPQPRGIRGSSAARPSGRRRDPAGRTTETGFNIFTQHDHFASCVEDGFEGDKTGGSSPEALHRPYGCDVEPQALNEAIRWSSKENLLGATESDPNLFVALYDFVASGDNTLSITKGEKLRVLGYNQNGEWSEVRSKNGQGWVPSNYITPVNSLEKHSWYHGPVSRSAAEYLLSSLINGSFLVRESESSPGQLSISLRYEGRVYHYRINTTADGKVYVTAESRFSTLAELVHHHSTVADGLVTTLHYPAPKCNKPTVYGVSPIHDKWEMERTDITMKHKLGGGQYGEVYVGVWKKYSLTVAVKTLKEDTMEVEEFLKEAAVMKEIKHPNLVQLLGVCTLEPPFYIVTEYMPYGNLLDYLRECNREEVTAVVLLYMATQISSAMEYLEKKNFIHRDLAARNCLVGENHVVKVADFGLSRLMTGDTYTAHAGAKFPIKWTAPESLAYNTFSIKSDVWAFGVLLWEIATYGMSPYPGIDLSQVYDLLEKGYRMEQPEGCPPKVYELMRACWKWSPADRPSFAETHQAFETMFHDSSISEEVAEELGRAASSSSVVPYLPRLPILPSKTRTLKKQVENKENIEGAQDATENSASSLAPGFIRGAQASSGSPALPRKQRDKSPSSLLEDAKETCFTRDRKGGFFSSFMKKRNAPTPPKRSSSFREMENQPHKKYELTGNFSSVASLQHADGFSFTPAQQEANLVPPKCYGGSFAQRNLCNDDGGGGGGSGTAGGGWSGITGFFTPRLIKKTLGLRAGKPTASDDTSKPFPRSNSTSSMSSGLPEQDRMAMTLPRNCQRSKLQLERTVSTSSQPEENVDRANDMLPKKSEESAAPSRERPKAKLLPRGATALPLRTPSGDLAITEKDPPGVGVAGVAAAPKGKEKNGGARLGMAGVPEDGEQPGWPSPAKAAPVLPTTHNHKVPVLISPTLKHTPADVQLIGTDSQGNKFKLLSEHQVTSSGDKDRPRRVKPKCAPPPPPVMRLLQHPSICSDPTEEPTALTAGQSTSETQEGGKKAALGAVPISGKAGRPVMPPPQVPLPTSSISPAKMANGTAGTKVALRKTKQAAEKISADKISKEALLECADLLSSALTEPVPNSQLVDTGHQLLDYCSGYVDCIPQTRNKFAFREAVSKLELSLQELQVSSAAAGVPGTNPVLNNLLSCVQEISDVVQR
For the compound `O=C1NC(=O)C(c2cccc([N+](=O)[O-])c2)=C1Nc1cc(Cl)c(O)c(Cl)c1`, the inhibition worked out at 3.78%.
For the compound `Cc1cccc(Oc2nccc(-c3c(-c4ccc(F)cc4)ncn3C3CCNCC3)n2)c1C`, the inhibition amounted to 4.31%.
Consider `Fc1ccc(-c2ncn(C3CCNCC3)c2-c2ccnc(Oc3ccc(Cl)cc3)n2)cc1`, for which the inhibition was -0.16%.
As for `Fc1ccc(-c2ncn(C3CCNCC3)c2-c2ccnc(Oc3cccc(F)c3)n2)cc1`, the inhibition amounted to 11.8%.
`COc1ccccc1C1=C(Nc2ccccc2)C(=O)NC1=O`: the inhibition was found to be 10.1%.
On to `O=C1NC(=O)C(c2ccccc2)=C1Nc1ccccc1`, for which the inhibition was determined as 5.54%.
The same measure, in the same setting: next, `NC(=O)CCc1ccccc1Oc1nccc(-c2c(-c3ccc(F)cc3)ncn2C2CCNCC2)n1`: -1.4%; `CS(=O)(=O)c1ccc(Oc2nccc(-c3c(-c4ccc(F)cc4)ncn3C3CCNCC3)n2)cc1`: 5.04%; `COc1ccccc1Oc1nccc(-c2c(-c3ccc(F)cc3)ncn2C2CCNCC2)n1`: 4.54%.
Same read-out and setting: next, `Fc1ccc(-c2ncn(C3CCNCC3)c2-c2ccnc(Oc3cccc(C(F)(F)F)c3)n2)cc1`: 8.03%; `O=C(O)c1ccc(Oc2nccc(-c3c(-c4ccc(F)cc4)ncn3C3CCNCC3)n2)cc1`: 5.05%.
In the case of `CC(C)(C)c1ccc(Oc2nccc(-c3c(-c4ccc(F)cc4)ncn3C3CCNCC3)n2)cc1`, the inhibition was determined as 3.61%.
On to `Fc1ccc(Oc2nccc(-c3c(-c4ccc(F)cc4)ncn3C3CCNCC3)n2)cc1`, for which the inhibition was -2.12%.
Turning to `O=C1NC(=O)C(c2ccccc2Cl)=C1Nc1cc(Cl)c(O)c(Cl)c1`, the inhibition is 10.2%.

The next assay concerns the target Tyrosine-protein kinase receptor UFO (Homo sapiens) (UniProt P30530). The following applies: at 0.1 µM.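 Note: values are mean percent inhibition of AXL from the GSK PKIS screen.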
UniProt P30530, sequence (P30530 whole entry): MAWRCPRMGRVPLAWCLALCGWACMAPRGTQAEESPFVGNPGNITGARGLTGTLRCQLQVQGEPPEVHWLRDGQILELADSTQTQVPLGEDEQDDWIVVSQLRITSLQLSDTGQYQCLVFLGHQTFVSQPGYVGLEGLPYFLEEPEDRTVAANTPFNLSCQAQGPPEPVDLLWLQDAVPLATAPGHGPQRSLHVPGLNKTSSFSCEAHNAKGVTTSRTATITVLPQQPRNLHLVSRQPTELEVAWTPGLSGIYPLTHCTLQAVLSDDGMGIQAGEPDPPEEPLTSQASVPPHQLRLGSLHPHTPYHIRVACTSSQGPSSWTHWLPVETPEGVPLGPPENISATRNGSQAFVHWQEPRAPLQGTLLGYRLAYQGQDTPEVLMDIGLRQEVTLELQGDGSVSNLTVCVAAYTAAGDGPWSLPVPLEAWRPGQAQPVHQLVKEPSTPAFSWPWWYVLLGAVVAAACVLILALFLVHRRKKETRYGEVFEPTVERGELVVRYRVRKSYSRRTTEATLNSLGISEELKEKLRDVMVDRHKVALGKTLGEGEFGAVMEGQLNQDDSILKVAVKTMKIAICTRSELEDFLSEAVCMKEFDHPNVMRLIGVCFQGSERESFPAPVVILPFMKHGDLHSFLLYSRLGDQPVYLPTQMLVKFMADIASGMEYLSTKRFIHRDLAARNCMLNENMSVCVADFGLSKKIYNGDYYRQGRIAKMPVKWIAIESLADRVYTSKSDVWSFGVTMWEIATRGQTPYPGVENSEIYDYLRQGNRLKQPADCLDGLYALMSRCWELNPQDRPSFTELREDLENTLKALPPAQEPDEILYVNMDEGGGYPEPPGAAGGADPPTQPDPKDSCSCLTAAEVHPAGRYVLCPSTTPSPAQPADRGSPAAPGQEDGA
For the compound `O=C1NC(=O)C(c2cccc([N+](=O)[O-])c2)=C1Nc1cc(Cl)c(O)c(Cl)c1`, the inhibition was 1.59%.
With `Cc1cccc(Oc2nccc(-c3c(-c4ccc(F)cc4)ncn3C3CCNCC3)n2)c1C`, the inhibition was -7.26%.
With `Fc1ccc(-c2ncn(C3CCNCC3)c2-c2ccnc(Oc3ccc(Cl)cc3)n2)cc1`, the inhibition is -0.96%.
Same read-out and setting: next, `Fc1ccc(-c2ncn(C3CCNCC3)c2-c2ccnc(Oc3cccc(F)c3)n2)cc1`: -7.53%; `COc1ccccc1C1=C(Nc2ccccc2)C(=O)NC1=O`: -2.18%; `O=C1NC(=O)C(c2ccccc2)=C1Nc1ccccc1`: -7.44%.
In the case of `NC(=O)CCc1ccccc1Oc1nccc(-c2c(-c3ccc(F)cc3)ncn2C2CCNCC2)n1`, the inhibition was determined as 0.65%.
Turning to `CS(=O)(=O)c1ccc(Oc2nccc(-c3c(-c4ccc(F)cc4)ncn3C3CCNCC3)n2)cc1`, the inhibition is -5.49%.
Same read-out and setting: under `COc1ccccc1Oc1nccc(-c2c(-c3ccc(F)cc3)ncn2C2CCNCC2)n1` stands -6.79%; under `Fc1ccc(-c2ncn(C3CCNCC3)c2-c2ccnc(Oc3cccc(C(F)(F)F)c3)n2)cc1`, -8%; under `O=C(O)c1ccc(Oc2nccc(-c3c(-c4ccc(F)cc4)ncn3C3CCNCC3)n2)cc1`, -6.97%.
Same read-out and setting: under `CC(C)(C)c1ccc(Oc2nccc(-c3c(-c4ccc(F)cc4)ncn3C3CCNCC3)n2)cc1` stands -4.21%; under `Fc1ccc(Oc2nccc(-c3c(-c4ccc(F)cc4)ncn3C3CCNCC3)n2)cc1`, -8.81%; under `O=C1NC(=O)C(c2ccccc2Cl)=C1Nc1cc(Cl)c(O)c(Cl)c1`, -4.9%.

Values taken from ChEMBL document CHEMBL1961873, “Compounds: GSK PKIS; Assays: Nanosyn kinase panel” (2012).
